In all, about 71,000 compounds went through this assay and about 1,800 (2.5%) were called active. Inconclusive means that the source gave no clear call. Such entries were picked first, then a sample of the others. Calls come from the whole dose curve; as a rule, active = well fitted activation curve with a large enough effect in the signal ratio, with a control signal flat (not every such curve was filed as active); inconclusive = small, poorly fitted or top-dose-only effect, or effect the other way, or a change in a side signal; inactive = flat fitted curve, though single readings scatter; the % refers to the signal ratio. A potency beside an inconclusive call is a rough fit, not a confirmed value.
test: Cell signaling CRE-BLA (Fsk stim); details: CHO CRE-bla reporter (cAMP response element driving beta-lactamase), forskolin EC10, beta-lactamase ratio; activity change, negative = inhibition: at 38.2 µM (top of the series) unless noted; for activity change, negative = inhibition: % of control where 0% means no effect
How it was run: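 qHTS titration format; CRE-bla CHO reporter; stimulus EC10 NKH 477, a water-soluble forskolin. Read: CCF4 460/530 nm ratio. Potency expressed as AC50 for activators or inhibitors.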
Potency is the fitted concentration of half-maximal effect; tags give direction and shape of the fitted curve.

SMILES | Potency | activity change, negative = inhibition
O=S1(=O)C=C(SCCN2CCCCC2)c2ccccc21 | inconclusive: 0.0251 µM [rising, full curve, poor fit] | –
CCOCCCn1c(=N)c(C(=O)NCc2ccc3c(c2)OCO3)cc2c(=O)n3ccccc3nc21 | – | inconclusive: 1.28%
CN(C)c1nc(OCCOC(=O)c2ccccc2)nc(N(C)C)n1 | active: 5.01 µM | –
Cc1c(N(C)C)nc2ccccc2c1N | – | inactive: -5.68%
CN1CCN(Cc2nc3cccc4c3c([n+]2[O-])-c2ccccc2-4)CC1 | – | inactive: 6.22% [at 7.6 µM]
CCOC(=O)c1c(C)[nH]c(C(=O)COC(=O)CSCC(=O)N(CC)CC)c1C | – | inconclusive: 35.3%
COc1ccc(-c2cc(N)n(S(=O)(=O)c3c(F)c(F)c(F)c(F)c3F)n2)cc1OC | – | inactive: 21.2%
CN1CCN(C(=O)c2cc3nc(-c4ccc(F)cc4)cc(C(F)(F)F)n3n2)CC1 | inconclusive: 10 µM [rising, single point] | –
Cc1ccccc1-c1cc(Nc2ccccc2)ncn1 | – | inconclusive: 20.7%
c1ccc(CSc2nnc3c(n2)OC(c2ccco2)Nc2ccccc2-3)cc1 (stereo not given) | – | inactive: 29.6% [at 7.6 µM]
CCC(C)NC(=O)CCNS(=O)(=O)c1ccc(Br)cc1 (stereo not given) | inconclusive: 3.98 µM [rising, single point] | –
COc1ccccc1-c1cc(NCc2cccnc2)ncn1 | – | inconclusive: 28.6%
Nc1ccc2oc(CCc3ccccc3)nc2c1 | inconclusive: 12.6 µM [rising, partial curve, poor fit] | –
O=C(COC(=O)COc1ccc(Nc2ccccc2)cc1)NCc1ccco1 | – | inactive: -6.62%
COc1ccc(C2c3sc(=O)[nH]c3SC3C4CCC(C4)C23)cc1 (stereo not given) | – | inconclusive: 27.5%
Cc1sc2nc(SCC(=O)c3cc(C)n(CC4CCCO4)c3C)n(C(C)C)c(=O)c2c1C (stereo not given) | inconclusive: 10 µM [rising, partial curve] | –
N#CCSc1nnc(COc2cccc3ccccc23)n1-c1cccc(Cl)c1 | – | inconclusive: -13.6%
CCOC(=O)c1sc(-c2ccc(OC)cc2)cc1N | – | inactive: 21.5%
COc1ccc(S(=O)(=O)Cc2ccc(C(=O)NCCCN(C)c3ccccc3)o2)cc1 | – | inconclusive: -6.58%
CCOC(=O)c1cccc(NC(=O)c2cc3sccc3n2C)c1 | – | inconclusive: -20.2%
CCCCNC(=O)c1cc2c(=O)n3cccc(C)c3nc2n(CCN2CCOCC2)c1=N | inconclusive: 12.6 µM [rising, single point] | –
CN(C)C(=O)c1ccc(-c2nc(NCc3cccs3)c3ccccc3n2)cc1 | inconclusive: 2.51 µM [rising, partial curve] | –
C[C@@H]1CCCC(CC(=O)O)(CC(=O)O)C1 | – | inactive: -3.5% [at 7.6 µM]
O=C(NCc1ccco1)c1cnn2c(C(F)F)cc(-c3ccccc3)nc12 | inconclusive: 3.98 µM [rising, partial curve] | –
CC(C)n1c(SCC(=O)Nc2ccccc2N2CCCCC2)nc2c1c(=O)n(C)c(=O)n2C | inconclusive: 1 µM [rising, partial curve] | –

SMILES | Potency | activity change, negative = inhibition
CN(C)C(=O)c1c(-c2ccccc2)oc2ccc(O)cc12 | – | inconclusive: -2.53%
COc1ccc(-c2nc3cnc(N(C)C)nc3n(C3CC3)c2=O)cc1 | inconclusive: 7.94 µM [rising, partial curve] | –
CCCOc1ccc(C2/C(=C(/O)c3ccc(F)cc3)C(=O)C(=O)N2CCCN(C)C)cc1 (stereo not given) | – | inconclusive: -6.69%
Nc1nonc1-c1noc(N2CCCCC2)n1 | – | inactive: -21.1%
CC1=C(C(=O)OCC2CCCO2)C(c2ccc(O)cc2)NC(=O)N1 (stereo not given) | – | inconclusive: 4.72%
Cc1ccc(S(=O)(=O)N2CCN(C3CC(=O)N(Cc4ccccc4)C3=O)CC2)cc1C (stereo not given) | – | inactive: -17.4%
CCOC(=O)N1CCC(NC(=O)c2cc(S(=O)(=O)N3CCCC3)cn2C)CC1 | – | inconclusive: 11.5%
COC(=O)C1=C(C)NC(C)=C(C(=O)OC)C1c1cc2cc(C)ccc2[nH]c1=O | – | inactive: -6.22%
Cc1nc(C)c(-c2csc(Nc3cccnc3)n2)s1 | active: 10 µM | –
COc1cc2c(cc1OC)CN(CC(=O)NC(=O)NCc1ccco1)CC2 | – | inconclusive: 3.44%
COc1cc(-c2nc(Cc3ccccc3Cl)no2)cc(OC)c1OC | inconclusive: 12.6 µM [rising, partial curve] | –
N#Cc1nc(COc2ccc(-c3ccccc3)cc2)oc1NCCCN1CCOCC1 | inconclusive: 25.1 µM [rising, single point] | –
COc1cc(-c2nc(S(=O)(=O)c3ccccc3)c(N3CCOCC3)o2)cc(OC)c1OC | active: 1.26 µM | –
Cc1cccc(NC2=NCC(=O)N2Cc2ccccc2)c1 | – | inconclusive: -14.7%
COc1ccc(-c2cc(C(=O)OC3CCOC3=O)c3ccccc3n2)cc1OC (stereo not given) | inconclusive: 12.6 µM [rising, partial curve] | –
Cc1cnc(CNc2ccnc(-c3ccccc3CN(C)C)n2)cn1 | – | inactive: -8.39%
COCCNc1nc(C)nc2c1nc(-c1ccccc1)n2C1CCN(Cc2ccccc2)C1 (stereo not given) | inconclusive: 10 µM [rising, partial curve] | –
CCOC(=O)N1CCN(c2nc3ccccc3nc2C(C#N)S(=O)(=O)c2ccc(C)cc2)CC1 (stereo not given) | – | inconclusive: 17.2%
CCOC(=O)c1sc(NC(=O)CSc2nnc3c4ccccc4n(CC)c3n2)nc1C | – | inactive: 5.7%
CSc1ccccc1NC(=O)Cn1c(-c2cscn2)nc2ccccc21 | inconclusive: 20 µM [rising, single point] | –
CN1C(=O)c2c(sc3c2CC(C)(C)SC3)N2CCN=C12 | – | inconclusive: 24.4%
COc1ccccc1CNc1nc(-c2cccnc2)nc2ccccc12 | inconclusive: 12.6 µM [rising, partial curve] | –
CN1CSC2=C(C#N)C(c3cccc(OCc4ccccc4)c3)CC(=O)N2C1 (stereo not given) | inconclusive: 12.6 µM [rising, partial curve] | –
c1ccc(Cn2ncc3c(N4CCCCC4)ncnc32)cc1 | inconclusive: 10 µM [rising, partial curve] | –
CCOC(=O)c1ccc(-n2c(C)nc3c(cnn3-c3ccccc3C)c2=O)cc1 | – | inactive: 4.93%

Reference: PubChem BioAssay AID662 (National Center for Advancing Translational Sciences (NCATS), 2007)
